# Laboratory results from ChEMBL document CHEMBL4888484, “Replenishing the malaria drug discovery pipeline: Screening and hit evaluation of the MMV Hit Generation Library 1 (HGL1) against asexual blood stage Plasmodium falciparum ,using a nano luciferase reporter read-out” (2022).
# Hit rate of the full screen: of about 150,000 compounds, about 540 (0.36%) showed an effect of 50% or more. This is one part of the list.
# Tested on: Plasmodium falciparum
# Assay: Primary screen in NF54 nanoGlo assay, in single point, at 2uM, 72h; a lower Z score goes with more inhibition
# Assay type: functional, Erythrocyte
# Conditions: timepoint 72 hour
Compound,% Inhibition,Z score
CNc1nc(N2CCN(Cc3ccc(C)o3)[C@@H](CCO)C2)nc2c1CCC2,-3%,0.61
CC(C)c1nccn1CC(=O)N[C@H]1[C@@H]2CN(Cc3ccccc3)C[C@@H]21,0%,-0.06
COCCOCCCNc1nccnc1NCCCOCCOC,-5%,0.81
COCCC1(CNc2ccc(C#N)nc2)CCCC1,-8%,1.09
CCN1CCCN(C(=O)C(=O)c2cccn2C)CC1,-10%,1.4
CCS(=O)(=O)N(CC(=O)N(Cc1ccc(C)cc1)C1CCN(C(=O)CCC2CCCC2)CC1)CC(C)C,-11%,1.44
Cc1nsc(N2CCC[C@H]2CCc2ccccn2)n1,0%,-0.07
CCn1cc(OC(=O)c2cccnc2OC)cn1,-7%,1.02
COc1ccc(-c2csc(N(C)c3ccc(O)cc3)n2)cc1,-11%,1.52
CCN(Cc1cnn(CC)c1)C(=O)c1ccc(-c2nccc(N)c2OC)cc1,-17%,1.46
COc1nc(CNS(=O)(=O)c2ccc(C)c(C)c2)nc(OC)n1,3%,-0.39
CC(NC(=O)NCC(O)C1CCOCC1)c1csc2ccccc12 (centres undefined),-1%,0.11
C[C@H]1CN(c2nccnc2OC2CCC2)CCS(=O)(=O)C1,-7%,0.75
Nc1nnc(CCNC(=O)c2conc2-c2ccccc2)s1,-7%,1.02
NC(=O)c1ccc(CNc2ccc3cccc(Br)c3n2)o1,-12%,1.4
Cc1cccnc1C[C@H](C)N(C)C(=O)Nc1ccccc1N1CCOC1=O,-8%,1.44
CN(Cc1ccccc1F)Cc1nnc2n1CCNC2=O,-14%,1.39
c1ccc(-c2nc(CN[C@H]3CCc4ccccc4OC3)cs2)nc1,10%,-1.21
CO[C@@]1(C)CCCN(C(=O)Nc2cc(F)ccc2OC(F)F)CC1,3%,-0.64
NC(=O)[C@@H]1CN(c2nc(C3CCCC3)nc3c2CNC3)CCO1,-13%,1.58
CC(C)(C)C(=O)Nc1ccccc1C(=O)NCCC(=O)O,-2%,0.38
CCN(C(=O)Cc1cccc(Br)c1)c1cccnc1,-3%,0.45

Compound,% Inhibition,Z score
O=C(Nc1cccnc1)c1cccc(S(=O)(=O)N2CCCCC2)c1,-5%,0.95
COc1cc(NC(=O)c2cccn2-c2cccnc2)cc(OC)c1OC,-16%,1.59
Cc1ccc(S(=O)(=O)Nc2sc3c(c2C(N)=O)CCC3)c(C)c1,-9%,0.89
Cc1cc(NC(=O)CCn2cc(Br)ccc2=O)n(C)n1,-6%,0.7
OCc1nc(CCNc2ccncc2F)no1,11%,-1.25
Cc1nnc(N2CCC([C@@H](O)CCc3ccccc3)CC2)o1,-22%,2.12
CC(C)C(=O)N1CCOc2ccc(N(C)C)cc2C1,-2%,0.44
Cc1nn(C)c(Oc2cccnc2)c1NS(=O)(=O)C1CCOC1C (centres undefined),3%,-0.44
COc1ccc(-c2nnc(Cc3nc(-c4ccc(F)cc4)no3)o2)cc1OC,-9%,1.14
Cc1ccc2c(Nc3cccc(Cl)c3)c(-c3nc(C)no3)cnc2n1,9%,-1.11
O=S(=O)(c1ccc(CNc2nc3c(F)cccc3o2)cc1)N1CCCC1,4%,-0.76
Cc1cc(C)cc(-n2nc(C(=O)NCc3ccncc3)c(=O)n(Cc3cccc(Cl)c3)c2=O)c1,-12%,1.24
Cc1nn(CC(=O)NCCNC(=O)c2nc(-c3ccccc3)no2)c(C)c1Br,12%,-1.2
O=C(C1CCCC1)N1CCN(c2nc3cc(Cl)ccc3c3nnc(C4CCCCC4)n23)CC1,-13%,1.57
C#CCNC1(C(=O)N(CC)CC)CCCCC1,3%,-0.4
COCCN1[C@@H]2CN(C(=O)Nc3cccc(OC)c3)C[C@@H]2OCCS1(=O)=O,2%,-0.31
O=C(NCCCS(=O)(=O)Cc1ccccc1)c1nc(N2CCCCC2)ncc1Cl,-9%,1.78
CC#CCCNC(=O)NCc1ccco1,6%,-0.7
O=C(Cc1cncc(O)c1)N1CCC[C@H]1C(F)(F)F,1%,-0.16
O=C(N[C@H]1CCCCNC1=O)c1cc(N2CCCCCCCC2)ccn1,7%,-0.93
CCNC(=O)C1(NCc2csc(CNC(=O)c3ccccc3)n2)CCCC1,6%,-0.65
Cn1cc(C(=O)NCCc2nc3c(c(C(F)(F)F)n2)COCC3)nn1,-6%,1.12

Compound,% Inhibition,Z score
CCN(C(=O)c1nn2cc(C)cnc2c1Cl)[C@H]1COC[C@@H]1O,-18%,2.52
C[C@@H](CCc1ncnn1CC(F)(F)F)N1CCOCC1,-3%,0.51
CCn1cc(C(=O)C(=O)N2Cc3cc(F)ccc3C[C@@H]2C)cn1,-7%,0.92
Cc1nn(C)cc1CCC(=O)NC[C@H](C)Oc1ccc(Cl)cc1,-7%,1.07
Cc1nc(N2CCCC2)nc(C)c1NC(=O)c1ccncc1,-5%,0.82
O=C(NC1CCC1)c1cccc(S(=O)(=O)NC[C@H]2CCCOC2)c1,-18%,2.42
O=C(NC[C@@H](c1ccco1)N1CCCC1)c1cccc(N2C(=O)CCS2(=O)=O)c1,0%,0
CC(OCCc1ccccc1)C(=O)N1CC2CC2C1 (centres undefined),4%,-0.53
CC(C)(C)c1nc(NS(=O)(=O)Cc2c(Cl)cccc2Cl)no1,-10%,1.04
O=C(NC1CC1)c1cccc2ccccc12,0%,0.03
Cc1ccccc1C(CC(=O)OCC(=O)N1c2ccccc2OCC1c1ccccc1)NC(N)=O (centres undefined),-7%,1.09
O=C1NC[C@@H]2CCC[C@@H](CCOc3ccccc3C(=O)N3CCN(Cc4ccc(F)c(F)c4)C[C@@H]13)O2,-6%,0.88
COC(=O)C[C@H](NC(=O)c1ccc2cc[nH]c2c1)C1CC1,7%,-0.68
CCS(=O)(=O)N(CCN1CCCCC1)C1CN(S(=O)(=O)c2cccs2)C1,-11%,2.11
COc1cccc(CC(=O)N2CCCC[C@H](Nc3ncccc3C(N)=O)C2)c1,-6%,0.85
O=S(=O)(CCC1CC1)Nc1ccc(-c2ccccn2)cn1,-2%,0.33
COc1ccc(Cl)cc1NC(=O)Cn1c(-c2ccccc2)nc2c(c1=O)CN(C)CC2,-10%,1.3
Cc1cn(C)nc1CN1CCC[C@H](N2CCNCC2=O)C1,1%,-0.13
C[C@H](C(=O)NCc1cc(F)cc(F)c1)C1CCOCC1,32%,-0.33
CC[C@H](C)NC(=O)Nc1cc(C)ns1,-1%,0.09
CC(N=C(NCCCn1cccn1)NCc1ccco1)C1CCCO1 (centres undefined),-1%,0.09
CN(C)Cc1nc(C(=O)NCc2csc3c2CCCC3)cs1,13%,-1.67

Compound,% Inhibition,Z score
Cn1cc2c(n1)c(=O)n(Cc1ccc(F)cc1)c(=O)n2CC(=O)N1CCN(c2ccccc2F)CC1,0%,0.02
CC(=O)N1CCN(C(=O)Cc2ccccc2C)CC[C@H]1c1nc(C)no1,-11%,1.46
COC(=O)C(c1cccnc1)N1CCC(CC(C)C)C1 (centres undefined),2%,-0.25
Cc1cc(C)c2c(NC(=O)Cn3ncc(N(C)C)cc3=O)nn(C)c2n1,-12%,1.58
O=C(CN1C(=O)c2ccccc2Oc2ncccc21)N1CCCCC1,-6%,1.11
CCn1ncc(Br)c1C(=O)N(C)c1ncccc1OC,11%,-2.07
O=C(NCc1cccc(-n2ccnc2)c1)NC1CCC(O)CC1 (centres undefined),13%,-1.74
O=C(Nc1ccccc1F)c1ccnc(-c2ccsc2)c1,5%,-0.65
CCCC(=O)c1ncccc1N1CCO[C@@H](COC)C1,7%,-1.3
O=C1C[C@H](NC(=O)CCc2cn3ccccc3n2)c2ccccc2N1,-5%,0.97
CCCc1[nH]nc(-c2ccc(C)cc2C)c1NC(=O)Cc1ccc(F)cc1,-6%,0.71
CCn1c(CC2CCN(C(=O)CCc3cnccn3)CC2)nn(C)c1=O,-2%,0.44
Cc1cccc(N2CCC(NCC3CCOCC3)CC2)c1C,-7%,1.48
CCN1CC[C@H]1C(=O)NC(C)(C)CCNC(=O)OC(C)(C)C,16%,-2.05
CCC(CC)[C@H](CNC(=O)Nc1cc(S(C)(=O)=O)ccc1Cl)N1CCCC1,7%,-0.92
Cc1ccnc(CNC(=O)N[C@@H]2CCCCC[C@H]2O)c1,-8%,1.08
CN(C)c1nc2cc(NC(=O)Cn3cnnn3)ccc2o1,-14%,1.69
CCc1cc(N2C[C@@H](C)N(CCO)[C@@H](C)C2)nc(C)n1,-7%,0.91
NC(=O)CN1CCC2(O)CCCCC2[C@@H]1c1ccc2c(c1)OCO2 (some centres undefined),1%,-0.13
CC(C)Cc1cc(CN(C)[C@H]2CCN(C)C2)n[nH]1,-9%,1.15
Cc1ccccc1Cn1c(-c2ccccn2)nnc1N1CCCC1,5%,-1
